# Assay results as given in ChEMBL document CHEMBL4888484, “Replenishing the malaria drug discovery pipeline: Screening and hit evaluation of the MMV Hit Generation Library 1 (HGL1) against asexual blood stage Plasmodium falciparum ,using a nano luciferase reporter read-out” (2022).
# In all, about 150,000 compounds went through this assay and about 540 (0.36%) showed an effect of 50% or more. The list shows a part of the results.
# System: Plasmodium falciparum
# Assay: Primary screen in NF54 nanoGlo assay, in single point, at 2uM, 72h; a lower Z score goes with more inhibition
# Type: functional, Erythrocyte
# Details: timepoint 72 hour
SMILES,% Inhibition [%],Z score
CCCc1cc(C(=O)NCc2cccnc2N2CCN(C)CC2)ccn1,3,-0.33
COc1ccc(C[C@H](N)C(=O)Nc2ccccc2CN2CCCCC2)cc1,-4,0.62
Cc1ccc(-c2noc(CCN(C(=O)c3ccco3)C3CCCCC3)n2)cc1Cl,-9,1.11
Cc1ccc2[nH]c(-c3nc(CCN(C)C(=O)C4CCC4)no3)cc2c1,-14,2.61
NC(=O)COc1cccc([C@H]2CC(O)=Nc3c2ncn3-c2ccc(Cl)cc2)c1,31,-3.53
NC(=O)NCC(=O)N1CCN(c2c(F)c(F)c(F)c(F)c2F)CC1,-4,0.53
CN1C[C@@H]2CC[C@H]1CN(C(=O)CCCOc1ccccc1)C2,-11,1.74
Cc1ccc(Oc2nc(N3CCC(C)CC3)nc3c2CN(Cc2sccc2C)CC3)cc1,-3,0.6
Cc1nc(N2C[C@@H](C)N(CCO)[C@@H](C)C2)ccc1C#N,-1,0.11
Cc1ncsc1CN1CC[C@H](CO)[C@H](NC(=O)c2cccnc2)C1,-5,0.7
O=C(c1ccc(=O)[nH]n1)N1CC[C@H](Oc2ccncn2)C1,-8,1.3
Cc1ccc(-n2nc(CC(C)C)nc2-c2ccnnc2)cc1C,-9,1.63
CC[C@H](NC(=O)NCCc1cn2c(n1)CCCC2)c1nc(C)cs1,-8,1.08
Cc1ccc2c(c1)[C@@H](NC(=O)c1oc(CC(C)C)nc1C)CO2,1,-0.11
CCC(CC)(CCO)CNC(=O)NC1CC1,-9,1.2
CCOC(=O)C1CN(S(=O)(=O)c2ccccc2)C1,36,-4.59
CCN(CC)CCNc1cccc(C(F)(F)F)c1,-1,0.15
O=C(Cc1ccc2c(c1)OCO2)N1CCN(c2nccs2)C(=O)C1,22,-2.74
CC(=O)NCc1nccc(N2CCCCC2)n1,-6,0.89
CO[C@@]12CC[C@@H](NC(=O)CC(C)C)C[C@@H]1N(C(=O)Cc1cccs1)CC2,-3,0.42
CCN(CC)c1onc(-c2ccccc2)c1CN(CC1CC1)C[C@H](O)COc1ccccc1,-3,0.42

SMILES,% Inhibition [%],Z score
Cc1ccccc1OCC(=O)N1C2CCC1CC(=C1CC1)C2,9,-1.13
Cc1ccccc1OC[C@@H](O)Cn1nnc2ccccc21,-18,1.61
CCC(C)C(=O)Nc1c(C(=O)OC)n(CC2CCCO2)c2ncc(NCc3cccc(F)c3F)cc12 (stereo unspecified),-10,1.11
CN(C)[C@H]1CCCN(Cc2ccc3c4c(cccc24)C(=O)OC3)CC1,-5,1.02
CC(C)(C)c1cc(CN2CCC3(CC2)[C@H](O)C[C@@H]3O)n[nH]1,-1,0.15
CN1C(=O)[C@@H]2CC[C@H]1CN(CCCC(=O)c1ccc(F)cc1)C2,-5,0.75
Cc1nc(CCN(C)C(=O)c2cc(N)ccn2)no1,-9,1.08
Cc1ncccc1C(=O)N1CCC2(CC1)CC(=O)N(CC(C)C)C2,-12,1.24
O=C(CCc1ccccc1)N1CCC2(CC1)N(CC1CC1)C(=O)C[S@+]2[O-],-8,1.48
COc1ccc(CNC(=O)[C@@H]2CCN(c3ccc(Cl)cc3)C2=O)cc1OC,-1,0.14
C[C@@H](C(=O)NC(=O)NC1CCCCC1)N(C)Cc1ccc(F)cc1F,-5,0.48
CN(CC1CN(c2ccccc2)C(=O)O1)CC1CN(C2CC2)C(=O)O1 (stereo unspecified),-1,0.19
Fc1cnc(NCC2(n3cccn3)CC2)nc1,-10,1.47
CC1CN(Cn2ncnc2-c2ccccc2Cl)CC(C)O1 (stereo unspecified),3,-0.45
Cc1ccccc1OCC(=O)N1CCC[C@H](COCc2ccccc2)C1,-6,1.2
CCC(=O)N1CCC[C@H](c2[nH]ncc2-c2ccccc2F)C1,-7,1.37
Cc1ccc(NC(=O)[C@@H]2CNC[C@H](C(=O)NCc3sccc3C)C2)cn1,2,-0.3
COC1(C)CC(Nc2ncnc3nc[nH]c23)C1(C)C (stereo unspecified),-13,1.91
COc1cc(-c2cc(C(=O)Nc3cc(S(=O)(=O)Nc4ccc(Cl)cc4)ccc3N3CCCC3)c3ccccc3n2)cc(OC)c1OC,-7,1.32
Cc1nnc(CN(C)C(=O)Nc2ccnn2CC2CCCCC2)o1,2,-0.3
O=C(NCCc1ccccc1)c1cn2c(n1)[C@@H](c1ccccc1)N(CC1CCCCC1)CC2,-8,1.17

SMILES,% Inhibition [%],Z score
Fc1ccc(COc2cccn3cc(-c4ccc(Cl)cc4)nc23)cc1,0,0.02
Cc1noc(C)c1CC(=O)N1CC[C@H](OCc2ccccc2)C1,3,-0.53
O=c1c2c(F)cccc2ncn1C1CCS(=O)(=O)CC1,-23,2.21
O=C(Cc1cccs1)N1CCCN(c2nnc3ccccn23)CC1,-5,0.52
O=C1[C@@H](N2CCS(=O)(=O)CC2)CCN1c1ccc(F)c(Cl)c1,-17,2.33
O=C(CNC(=O)c1ccccc1Br)Nc1ccc(N2CCCCC2)cc1,-12,1.38
CCN(CC)C(=O)c1cnc2nc(C)ccc2c1Nc1ccc(F)cc1F,-2,0.4
CO[C@@H]1CCCCC[C@@H]1S(=O)(=O)NCC(C)c1nccs1 (stereo partly specified),-1,0.12
CC(C)(C)C(=O)NCCc1nc(N)cc(O)n1,1,-0.12
CCCc1nnc(NC(=O)NC[C@](C)(O)c2ccc(C)o2)s1,-8,1.52
CC(C)n1nccc1S(=O)(=O)N[C@H]1COC[C@@H]1N1CCCC1,3,-0.53
CC(=O)N[C@@H]1CN(Cc2cccnc2C(F)(F)F)C[C@H]1c1nccn1C,-11,1.75
Cc1ccc(-c2noc(CCN(CC(C)C)C(=O)c3ccccc3)n2)cc1,-15,2.51
COc1ccc(CC(=N)Nn2cnnc2)cc1,-20,2.52
NCCCOc1cc(Cl)ccc1C(=O)N1CCc2nc[nH]c(=O)c2C1,9,-1.16
Cc1ccc(-c2nc3[nH]c(CN4CCCCCC4)cc(=O)n3n2)cc1C,-8,1.27
O=C1CC(c2cccc(NC(=O)CCc3ccccn3)c2)CC(=O)N1,33,-0.41
CN=C(NCc1nc(C)c(C)o1)NC1CC(C)N(c2ccccc2)C1 (stereo unspecified),-2,0.32
O=S(=O)(CC1CCCC1)NCCN1CCC[C@H](CO)C1,-11,1.05
Cc1cc(C(=O)N2CCCN(C3CC3)CC2)c(C)n1C(C)C,-15,2.87
CC1CCC(C(=O)N2CCOC3CCCCC32)O1 (stereo unspecified),-2,0.29

SMILES,% Inhibition [%],Z score
C[C@H]1CN(c2ccc3cn[nH]c3c2)C(=O)CN1C(=O)Cc1cnccn1,-1,0.22
CCOc1ccccc1CN1CCC(Cc2ccc(C(=O)N3CCOCC3)cc2)CC1,3,-0.45
NC(=O)N1CCC[C@H]1C(=O)NCCCc1ccccc1Cl,4,-0.77
Cc1cnccc1NC(=O)NCC1(O)CCCC1,10,-1.48
CCOc1cc(C(c2c(C)n(C)n(-c3ccccc3)c2=O)c2c(C)n(C)n(-c3ccccc3)c2=O)ccc1OCc1ccccc1,75,-5.78
COc1cc(-c2nc(=O)c(CCC(=O)N3CCN(C)CC3)n[nH]2)ccc1OCc1ccccc1F,-5,1.04
Cc1cc(F)ccc1OC1(C(=O)O)CCN(Cc2ccoc2)CC1,-9,1.35
O=C(Nc1cccc(S(=O)(=O)N2CCOCC2)c1)c1ccco1,-17,2.93
COc1ccc(OC)c(NC(=O)c2cccc(N3C(=O)C4C5CCC(C5)C4C3=O)c2)c1 (stereo unspecified),-2,0.35
Cc1ncc(C(=O)N(C)C[C@@H]2C[C@H](F)CN2c2ccncn2)c(C)n1,-1,0.15
CC(C)CCN1CC[C@H](c2nc3ccccc3[nH]2)C1,33,-3.69
COc1cccc(-c2ccnc(-n3ncc(C(=O)NCCN4CCOCC4)c3C3CC3)n2)c1,-13,1.69
O=C(Nc1ccnn1C1CCN(Cc2ccc(-n3cccn3)cc2)CC1)c1cccnc1,4,-0.48
CC(=O)c1ccc(N(Cc2c(C)noc2C)S(C)(=O)=O)cc1,-1,0.14
Cc1ccc(O)c(CNc2ccc(C(=O)N3CCCC[C@@H]3C)cc2)n1,-13,2.26
CCCCN(CCC(=O)Nc1nnc(-c2ccc(C(F)(F)F)cc2)s1)C(=O)C1CCC1,-13,1.33
CCCCc1c(C)[nH]c2nc(N(Cc3ccc(F)cc3)C(=O)c3ccccc3F)nn2c1=O,-14,1.43
Cc1c(CN(C)C(=O)c2ncn(C(C)(C)C)n2)cnn1C,-7,0.89
CC1CN(Cc2ccccn2)CCC1NC(=O)c1cccnc1O (stereo unspecified),-2,0.34
c1csc(-c2csc([C@@H]3CCCO3)n2)n1,0,-0.07
